# Assay results as given in PubChem BioAssay AID485281 (National Center for Advancing Translational Sciences (NCATS), 2010).
# Out of some 350,000 compounds screened, about 260 (0.074%) were called active. This list was built around the results that the source calls inconclusive (neither active nor inactive); the mix of calls is not that of the screen. Calls follow the shape of the dose curve; as a rule, active = well fitted inhibition curve with a large enough effect; inconclusive = small, poorly fitted or top-dose-only effect; inactive = no such curve, though single readings can be large or run the other way. Potencies of inconclusive entries are doubtful fits and often do not repeat.
# Target: Ferritin light chain (Equus caballus) (UniProt P02791)
# Assay: qHTS Assay for Identification of Novel General Anesthetics; also: nearly all actives have a fitted effect of over 20% in size
# Conditions: apoferritin/1-aminoanthracene competitive binding, fluorescence; activity change, negative = displacement: at 77.5 µM (top of the series)
# How it was run: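 Horse-spleen apoferritin (10 uM) in 50% saturated 1-aminoanthracene in PBS was incubated 10 min at room temperature with compound. Fluorescence (ex 380, em 535 nm) was normalized to free and bound 1-AMA, with concentration-response fitted by a four-parameter Hill equation.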
# % is scaled to controls: 0 for no effect and ±100 for the full control effect; potency is read from the fitted curve at half-maximal effect; tags tell the direction and shape of the fitted curve.
# Chain of UniProt P02791 (P02791 whole entry, looked up): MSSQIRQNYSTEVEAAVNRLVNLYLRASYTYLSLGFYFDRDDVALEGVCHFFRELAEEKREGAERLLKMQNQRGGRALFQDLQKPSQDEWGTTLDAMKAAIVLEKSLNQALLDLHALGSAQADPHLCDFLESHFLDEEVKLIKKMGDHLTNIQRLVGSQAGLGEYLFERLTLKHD
Compound,Potency,"activity change, negative = displacement"
COc1ccc(/C=C/C(=O)NC2CC3CCC2C3)cc1 (stereo not drawn),"inconclusive: 20 µM [inhibitor, partial curve]",
O=C(c1ccccc1Cl)N1CCCC(c2nc3c(nnn3Cc3ccccc3)c(=O)[nH]2)C1 (stereo not drawn),"inconclusive: 28.2 µM [inhibitor, single point]",
COCCn1c(C)cc(C2=NNC(=Nc3ccc(OC)cc3)SC2)c1C,"inconclusive: 35.5 µM [inhibitor, partial curve]",
O=C(CNCc1cccs1)NC12CC3CC(CC(C3)C1)C2,"inconclusive: 31.6 µM [inhibitor, partial curve]",
O=C(c1ccco1)N1CCN(S(=O)(=O)c2c(Cl)cccc2Cl)CC1,,inactive: -6.72%
CCCCN1CC(O)=C(c2nc3ccccc3s2)C1=N,,inactive: -16.4%
C/C=C/C(O)c1ccc2ccccc2c1 (stereo not drawn),"inconclusive: 35.5 µM [inhibitor, partial curve]",
Cc1ccc(C2(C)NC(=O)N(CC(=O)Nc3cccnc3Cl)C2=O)cc1 (stereo not drawn),"inconclusive: 25.1 µM [inhibitor, partial curve]",
CCCCOc1ccc(CCC(=O)N/N=C/c2ccco2)cc1,"inconclusive: 50.1 µM [inhibitor, single point]",
COc1cc(OC)nc(NC(=O)COC(=O)C2CCCCC2)n1,"inconclusive: 14.1 µM [inhibitor, partial curve]",
O=C(CNc1ccccc1F)N/N=C/C1CC=CCC1 (stereo not drawn),"inconclusive: 14.1 µM [inhibitor, partial curve]",
CC(C)c1ccccc1OCC(=O)N1CCCCCCC1,"inconclusive: 8.91 µM [inhibitor, partial curve]",
COc1cc(C(C)=O)ccc1OCC(O)CN1CCN(c2c(C)cccc2C)CC1 (stereo not drawn),"inconclusive: 35.5 µM [inhibitor, single point]",
Cc1nc(N2CCCC2)ncc1C(=O)N1CCN(c2ccc(Cl)cc2)CC1,"inconclusive: 17.8 µM [inhibitor, partial curve]",
Cc1nc2c(C(=O)NCc3ccccc3Cl)cnn2c(C)c1Cc1ccccc1,"inconclusive: 7.08 µM [inhibitor, single point]",
CCOC(=O)C1=C(N2CCCCC2)c2cc3c(n2C1=O)CCCC3,"inconclusive: 28.2 µM [inhibitor, partial curve]",
O=C(c1ccc2c(c1)OCO2)C1CCCN(Cc2cccn2-c2cccnc2)C1 (stereo not drawn),,inactive: -22.2%
Cc1c(C(=O)OCC(=O)NCCN2C(=O)CSC2=O)oc2c1ccc1ccccc12,,inactive: -15.2%
CCOC(=O)c1c(-c2ccccc2)oc2ccc(O)c(CN3CCCC3)c12,"inconclusive: 15.8 µM [inhibitor, partial curve]",
Cc1ccc(Cl)cc1N1CCN(C(=O)CCS(=O)(=O)c2cccc3nonc23)CC1,,inactive: -1.26%
CCN(CC)C(=O)Cn1cc(S(=O)(=O)CC(=O)Nc2ccc(F)cc2F)c2ccccc21,,inactive: -7.59%
COc1ccc(NC(=O)C(C)n2nc(-c3cc(C)ccc3C)c3c(c2=O)CCCC3)cc1 (stereo not drawn),"inconclusive: 35.5 µM [inhibitor, single point]",
O=c1c2c(-c3cccs3)csc2ncn1-n1cccc1,"inconclusive: 20 µM [inhibitor, partial curve]",

Compound,Potency,"activity change, negative = displacement"
CC1C/C(=N\Nc2ccc(S(N)(=O)=O)cc2[N+](=O)[O-])CC(C)(C)C1 (stereo not drawn),"inconclusive: 28.2 µM [inhibitor, single point]",
CCOc1cc(C)c(S(=O)(=O)NC2CCCCC2)cc1C,"inconclusive: 25.1 µM [inhibitor, partial curve]",
CC1=CC(C)(C)NC(=S)N1c1cccc(C)c1,"inconclusive: 31.6 µM [inhibitor, partial curve]",
CCCOC(=O)Cn1cnc2scc(-c3ccc(C)cc3)c2c1=O,"inconclusive: 56.2 µM [inhibitor, single point]",
CCN(CC)S(=O)(=O)c1ccc(C)c(NC(=S)Nc2cccc(S(=O)(=O)N3CCCCCC3)c2)c1,"inconclusive: 22.4 µM [inhibitor, partial curve]",
COc1ccc(NC(=O)CCCc2ccccc2)c(OC)c1,"inconclusive: 39.8 µM [inhibitor, partial curve]",
O=Cc1c(Cl)nc2ccccn2c1=O,,inactive: -11.5%
COc1cc(C2NC(=O)NC(C)=C2C(=O)OCC2CCCCC2)cc(Cl)c1O (stereo not drawn),"inconclusive: 35.5 µM [inhibitor, single point]",
Cc1cccc(NC(=O)C2(c3ccccc3)CC2(Cl)Cl)c1 (stereo not drawn),"inconclusive: 5.62 µM [inhibitor, full curve]",
COc1ccc(/C=N/n2c(-c3ccc(C)cc3)n[nH]c2=S)cc1OC,,inactive: -13.9%
Cc1ccc(NC(=O)CCn2cccc2)cc1C,"inconclusive: 35.5 µM [inhibitor, partial curve]",
CCC(C)c1ccc(OCCCCN2CCOCC2)cc1 (stereo not drawn),"inconclusive: 50.1 µM [inhibitor, single point]",
Cc1ccc2nc(NC(=O)CN(C)S(=O)(=O)c3ccc(Br)s3)sc2c1,"inconclusive: 28.2 µM [inhibitor, partial curve]",
CCN(CC)c1cc(C(F)(F)F)nc(-c2ccccn2)n1,"inconclusive: 31.6 µM [inhibitor, single point]",
COc1ccc(-c2[nH]c(-c3ccccc3)nc2SCC(=O)Nc2ccc3c(c2)OCCO3)cc1,,inactive: 12.8%
O=C(O)CSCc1cnn(-c2ccccc2)c1-n1cccc1,"inconclusive: 22.4 µM [inhibitor, partial curve]",
CC(C)(C)c1csc(Sc2ccc([N+](=O)[O-])cn2)n1,"inconclusive: 56.2 µM [inhibitor, partial curve]",
O=C(Oc1cccc([N+](=O)[O-])c1)N1CCCCC1,"inconclusive: 17.8 µM [inhibitor, partial curve]",
COc1ccc(Oc2ncnc3c2ncn3Cc2ccccc2)cc1,"inconclusive: 11.2 µM [inhibitor, partial curve]",
C=CCn1c(SCC(=O)NCc2ccc3c(c2)OCO3)nnc1C1COc2ccccc2O1 (stereo not drawn),"inconclusive: 31.6 µM [inhibitor, single point]",
Cc1nc2cc(N3CCN(C)CC3)c(NC(=O)Cc3ccccc3)cc2c(=O)n1Cc1ccccc1,"inconclusive: 39.8 µM [inhibitor, partial curve]",
O=C(NN=C(Cc1ccccc1)Cc1ccccc1)c1ccccc1F,"inconclusive: 17.8 µM [inhibitor, partial curve]",
CCCCCOc1ccc(NC(=O)Cc2csc(C)n2)cc1,"inconclusive: 50.1 µM [inhibitor, partial curve]",

Compound,Potency,"activity change, negative = displacement"
CC(NS(=O)(=O)c1ccc(OCC(=O)N2CCOCC2)cc1)c1ccccc1 (stereo not drawn),,inactive: -10.9%
O=C(NC(=S)Nc1cccc([N+](=O)[O-])c1)c1ccco1,,inactive: 5.04%
CC(C)CC1(C)NC(=O)N(CC(=O)Nc2ccc3c(c2)CCC3)C1=O (stereo not drawn),"inconclusive: 50.1 µM [inhibitor, single point]",
Cn1cccc1C(=O)NC(=O)COC(=O)C12CC3CC(CC(O)(C3)C1)C2,"inconclusive: 17.8 µM [inhibitor, partial curve]",
O=C(COC(=O)CCCNC(=O)c1ccc(Cl)cc1)NCc1ccccc1Cl,"inconclusive: 39.8 µM [inhibitor, partial curve]",
COc1ccc(S(=O)(=O)N2CCCc3ccccc32)cc1[N+](=O)[O-],"inconclusive: 56.2 µM [inhibitor, single point]",
O=S(=O)(CCSc1nc2ccccc2s1)c1nc2ccccc2s1,"inconclusive: 20 µM [inhibitor, partial curve]",
O=C(NN1C(=O)/C(=C/c2ccc(O)cc2)SC1=S)c1cccc(O)c1,"inconclusive: 31.6 µM [inhibitor, partial curve]",
N#Cc1c(N)[nH]c(=S)c(C#N)c1-c1ccccc1,,inactive: -20%
CCC(=O)N1CCC2(CC1)Oc1ccc(F)cc1C(=O)C21CC(c2ccccc2)=NO1 (stereo not drawn),"inconclusive: 39.8 µM [inhibitor, single point]",
COc1ccc(C2C(C(=O)c3ccco3)=C(O)C(=O)N2CC2CCCO2)cc1OC (stereo not drawn),,inactive: -6.45%
CCOC(=O)C1CCCN(C(=O)Cn2nc(C)c3c(C)n(-c4ccccc4)nc3c2=O)C1 (stereo not drawn),,inconclusive: -24.4% [inhibitor]
COc1ccc(/C=N/NC(=O)CC(=O)NCc2cccnc2)c(OC)c1,"inconclusive: 56.2 µM [inhibitor, single point]",
COc1ccc(NC(=O)N(C2CCCCC2)C(C)c2ccco2)c(OC)c1 (stereo not drawn),"inconclusive: 31.6 µM [inhibitor, partial curve]",
Cc1ccc2c(c1)c(=O)c(C(=O)c1ccc3c(c1)OCO3)cn2Cc1cccc(F)c1,"inconclusive: 3.55 µM [inhibitor, partial curve]",
Cc1ccc(-c2nn(-c3ccc(F)cc3F)c3c2cnc2c(F)cccc23)cc1,,inactive: 42.2%
CN1C(=O)C2(c3ccccc31)N(C)CC(c1ccccn1)C21SC(=S)N(Cc2ccco2)C1=O (stereo not drawn),"inconclusive: 14.1 µM [inhibitor, partial curve]",
Nc1nc(OCC(F)(F)F)cc(Oc2ccccc2F)n1,"inconclusive: 44.7 µM [inhibitor, single point]",
O=C(/C=C/c1ccc(OCc2c(F)cccc2Cl)cc1)N1CCOCC1,"inconclusive: 31.6 µM [inhibitor, partial curve]",
O=C1CCCc2cc(S(=O)(=O)NCC3CCC(C(=O)NCc4ccccc4Cl)CC3)ccc2N1 (stereo not drawn),,inactive: -0.114%
Fc1ccc(N/N=C2/CCSc3sccc32)c(F)c1,,inactive: 7.84%
Cc1cccc(-c2nc(CS(=O)CC(=O)NC(C)CCc3ccccc3)c(C)o2)c1 (stereo not drawn),"inconclusive: 14.1 µM [inhibitor, partial curve]",
